Results on 108 compounds are retold here after PubChem BioAssay AID488969 (Vanderbilt High Throughput Screening Facility, 2010).

Each structure is given as a SMILES string. In all, about 110,000 compounds were measured (“z-score”: median about -0.1, highest 2% from about 2 on). The list shows a part of the results. The source made the active and inactive calls.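 Rule for the calls: active = z-score in the third read window above 3 or below -3; inactive = the rest.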

The target in this assay is Metabotropic glutamate receptor 8 (Rattus norvegicus) (UniProt P70579). Nature of the assay: rat mGluR8 modulators via GIRK flux, primary screen, cell-based, thallium flux, HTS (AID 488969). As to conditions: HEK293 rat mGluR8, GIRK (G protein-gated inwardly rectifying potassium channel) thallium flux, FluoZin2; at 10 µM; stronger effect = higher value; submaximal glutamate (EC20) added with thallium.
Sequence of UniProt P70579 (P70579 whole entry, looked up): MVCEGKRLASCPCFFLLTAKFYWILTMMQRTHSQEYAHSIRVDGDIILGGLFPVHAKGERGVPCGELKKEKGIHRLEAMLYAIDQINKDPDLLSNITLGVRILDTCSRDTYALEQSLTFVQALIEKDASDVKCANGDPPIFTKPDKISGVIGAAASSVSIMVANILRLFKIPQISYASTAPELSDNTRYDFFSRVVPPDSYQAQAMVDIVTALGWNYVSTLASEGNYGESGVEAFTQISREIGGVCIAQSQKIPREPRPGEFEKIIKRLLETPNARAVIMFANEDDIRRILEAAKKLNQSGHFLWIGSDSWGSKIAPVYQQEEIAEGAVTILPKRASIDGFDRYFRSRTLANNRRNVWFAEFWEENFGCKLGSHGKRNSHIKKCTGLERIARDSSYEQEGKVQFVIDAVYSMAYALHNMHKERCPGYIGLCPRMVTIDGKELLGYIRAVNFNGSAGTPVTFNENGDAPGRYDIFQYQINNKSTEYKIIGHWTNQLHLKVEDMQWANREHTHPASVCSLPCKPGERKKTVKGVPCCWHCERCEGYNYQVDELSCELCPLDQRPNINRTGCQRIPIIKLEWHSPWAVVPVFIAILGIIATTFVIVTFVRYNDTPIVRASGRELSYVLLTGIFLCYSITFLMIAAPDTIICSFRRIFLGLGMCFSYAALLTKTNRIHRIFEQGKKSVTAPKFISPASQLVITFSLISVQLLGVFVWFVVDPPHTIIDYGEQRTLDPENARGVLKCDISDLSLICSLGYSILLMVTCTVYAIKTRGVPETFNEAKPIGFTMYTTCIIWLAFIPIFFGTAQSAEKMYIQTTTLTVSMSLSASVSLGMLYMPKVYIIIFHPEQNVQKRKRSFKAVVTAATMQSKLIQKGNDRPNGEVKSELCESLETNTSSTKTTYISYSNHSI
For the compound `CC12CN3CCN(CC(C3)/C1=N/NC(=O)Nc1ccccc1)C2`, the z-score amounted to 0.217.
As for `Cc1nnc(NC(=O)CSc2nc(C(C)C)nc3sc(C)c(C)c23)s1`, the z-score is -0.837.
The compound `CN(C)S(=O)(=O)c1ccc(Cl)c(NC(=O)COC(=O)CN2C(=O)NC(C)(C)C2=O)c1` showed a z-score of -0.162.
As for `O=C1c2ccccc2C(=O)N1CCN1CCCCC1`, the figure is 0.0627; as for `N#Cc1c(NC(=O)c2ccc(Cn3cc(Br)cn3)o2)sc2c1CCCCCC2`, -0.375.
In the case of `CC1(C)Cc2nc3nc(SCC(=O)NCc4ccccc4)n(-c4ccccc4)c(=O)c3cc2CO1`, the z-score is 0.0372.
Then `CCc1ccc(NC(=O)COC(=O)CCc2nc3cc(S(=O)(=O)N(CC)CC)ccc3n2C)cc1`, with -0.4.
As for `O=C(NCCC1=CCCCC1)c1ccc(F)c(S(=O)(=O)N2CCOCC2)c1`, the figure is 0.103; as for `N/C(Cc1ccc([N+](=O)[O-])cc1)=N\OC(=O)COc1ccc2ccccc2c1`, -0.133; as for `COCCNC(=O)C1CCCN(c2ncccn2)C1` (stereo not drawn), -0.235.
The compound `CCOC(=O)CN(C(=O)CSc1nnc2c(n1)[nH]c1ccccc12)c1ccccc1` yielded a z-score of -0.691.
Then `COC(=O)c1ccccc1NC(=O)C1CCCN(S(=O)(=O)c2ccccc2)C1` (stereo not drawn), with -1.97.
Then `O=C(CCC(=O)c1ccc(Br)cc1)Nc1cccc(C(F)(F)F)c1`, with 0.0995; and `CCOC(=O)CC(NC(=O)c1ccco1)c1ccccc1Cl` (stereo not drawn), with -0.462; and `CC(C)NC(=O)c1ccccc1NC(=O)CS(=O)(=O)Cc1ccccc1`, with -0.28.
`O=c1c2ccccc2nc(SCc2cn3ccsc3n2)n1-c1ccccc1F` gave a z-score of -2.63.
As for `Nc1nc(SCC(=O)Nc2ccccc2Sc2ccccc2)n[nH]1`, the figure is -0.629; as for `Cc1ccc(-n2nnc3c(SCC(=O)NCC4CCCO4)ncnc32)cc1` (stereo not drawn), 0.0501; as for `CCOC(=O)c1cccc(S(=O)(=O)N(CCO)Cc2cc3cc(OC)ccc3[nH]c2=O)c1`, -0.116.
`O=C(CSc1nnc2scc(-c3ccccc3)n12)Nc1ccc2c(c1)OCCO2` showed a z-score of -1.39.
Then `O=C(/C=C/c1ccc(F)cc1)Nc1cccc(S(=O)(=O)Nc2cccc(C(F)(F)F)c2)c1`, with -0.207; and `COCCN1C(=O)C(=O)/C(=C(/O)c2cccc(OC)c2)C1c1ccco1` (stereo not drawn), with -0.469.
`Cc1cccc(-c2nnc(SCC(=O)N3c4ccccc4CCc4ccccc43)n2C)c1` came in with a z-score of -0.366.
As for `COc1ccc(OCC(=O)N/N=c2\oc3c(OC)cccc3cc2C(N)=O)cc1`, the z-score is -0.154.
Consider `CC12C=CC3(O1)C(C(=O)N(c1ccccc1)C3C(=O)NC1CCCC1)C2C(N)=O` (stereo not drawn), for which the z-score was 0.414.
Turning to `COc1cccc2c(=O)n(CC(=O)Nc3ccccc3)ccc12`, the z-score was found to be 0.052.
Turning to `Fc1ccc(-c2noc(C3CCN(Cc4cccnc4)CC3)n2)cc1`, the z-score stood at 0.839.
As for `Cc1ccccc1N(CC(=O)NC1CCCC1)C(=O)c1oc(C(C)(C)C)cc1C`, the figure is -0.251; as for `COc1ccc(CCNC(=O)CCSc2nc(-c3ccco3)cc(C(F)(F)F)n2)cc1`, -0.38.
Then `Cc1cc(OCC(=O)N2CCOCC2)c(C(C)C)cc1Cl`, with -0.938.
Then `Cc1ccc(-c2nc3ncccc3o2)cc1NC(=O)c1sc2ccccc2c1Cl`, with -0.924; and `Cc1nc2ccccc2nc1OCC(=O)N1CCN(c2ccccc2)CC1`, with -0.273; and `O=C(C(Cc1ccccc1)n1cccc1)N1CCN(C2CCCCC2)CC1` (stereo not drawn), with -0.652.
On to `COc1ccc(NC(=O)CN2CCC(n3c(C)nc4cc(F)ccc43)CC2)c(OC)c1`, for which the z-score was -0.554.
On to `O=C1CC(c2ccccc2)n2nc(N3C(=O)c4ccccc4C3=O)nc2N1` (stereo not drawn), for which the z-score was -0.556.
Then `O=c1[nH]c2ccc(Br)cc2c(-c2ccccc2)c1N1CCOCC1`, with -0.809.
As for `CSc1ccccc1NC(=O)CN(C)Cc1ccc(Br)cc1`, the figure is -0.0827.
Take `O=C(Nc1ccc(F)cc1)c1nsc(Cl)c1Cl`: the z-score was 1.05.
As for `COc1ccc(Nc2nc3ccccc3n3cnnc23)cc1`, the z-score was -0.148.
As for `CCN(CCO)C1CC(=O)N(c2ccccc2C)C1=O` (stereo not drawn), the figure is -0.176; as for `COc1cc(NC(=O)CSc2nc3ccccc3cc2Cc2ccccc2)cc(OC)c1`, -0.162; as for `C[N+]1(CCN2C(=O)C3CC=C(Cl)CC3C2=O)CCOCC1` (stereo not drawn), -0.354.
In the case of `COC(=O)C1=C(Cn2cnc3ccccc32)NC(=O)NC1c1cc(C)ccc1C` (stereo not drawn), the z-score was -0.794.
As for `c1csc(C(c2nnnn2C2CCCCC2)N2CCN(c3nc4ccccc4s3)CC2)c1` (stereo not drawn), the figure is -1.46; as for `CCOC(=O)C(CC)Sc1nc2c(c(=O)[nH]c(=O)n2C)n1C/C=C(/C)Cl` (stereo not drawn), -1; as for `Cc1ccc(-c2cn(-c3ccccc3)c3[n+]2CCCS3)cc1`, -0.266.
On to `COc1ccc2c(c1[N+](=O)[O-])CCC/C2=N/OC(=O)c1cccc2ccccc12`, for which the z-score is 0.0304.
Then `O=C(CN1CCCC1)Nc1ccc(-c2nc3cc(NC(=O)CN4CCCC4)ccc3o2)cc1`, with 0.556.
On to `CC(=O)c1ccc(NS(=O)(=O)c2cccc(C)c2)cc1`, for which the z-score was -0.256.
Consider `N#CC1=C(N)SC(N)=C(C#N)C1C1C=CCCC1` (stereo not drawn), for which the z-score worked out at 0.0133.
In the case of `CS(=O)(=O)c1cnc(-c2ccccc2)nc1Oc1ccc(F)cc1`, the z-score was -0.0732.
For `COc1c(F)c(F)c(C(=O)Nc2ccc(N3CCN(C(C)=O)CC3)c(Cl)c2)c(F)c1F`, the z-score was -0.24.
On to `CCOc1ccc(C(=S)N2CCCC2)cc1`, for which the z-score was determined as 0.0258.
Then `CCn1c(SCc2nc3ccccc3[nH]2)nnc1-c1cccs1`, with -0.237; and `CCOC(=O)C1CCCN(c2c(NCCc3ccc(S(N)(=O)=O)cc3)c(=O)c2=O)C1` (stereo not drawn), with 1.02; and `c1ccc(-c2nc3cnccn3c2Nc2ccc3c(c2)OCCO3)cc1`, with 0.216.
As for `O=C(O)C1CC(=O)N(C2CCCCC2)C1c1ccccc1` (stereo not drawn), the figure is 0.0745; as for `Cc1ccc(-n2c(N)c(C(N)=O)sc2=S)cc1`, 1.2; as for `Cc1cccc(/C=N/NC(=O)CNc2cccc3ccccc23)n1`, 0.238.
`O=C(OCC(=O)N1CCc2ccccc21)c1c2c(nc3ccccc13)CCCCC2` displayed a z-score of -0.0336.
Then `O=C(OC(C(=O)Nc1cccc(C(F)(F)F)c1)c1ccccc1)C1CCCCC1` (stereo not drawn), with 0.104; and `CCn1cc(CNC(=O)NC2CCCCC2)c(C)n1`, with -0.118; and `Fc1ccc(-c2nnc(SCc3ncc(-c4ccccc4)o3)n2CC2CCCO2)cc1` (stereo not drawn), with -0.509.
Compound `CCn1c2ccccc2c2cc(NC(=O)COC(=O)c3cccc(S(=O)(=O)NC)c3)ccc21` came in with a z-score of -0.176.
Take `O=C(Nc1ccc(Cl)cc1)N(Cc1cccs1)Cc1cccs1`: the z-score turned out to be 0.142.
As for `CCC(=O)N1CCN=C1SCc1ccc(Cl)cc1`, the figure is 0.425.
Compound `Cc1cc(C)cc(N(C(C)C(=O)NC2CCCC2)S(C)(=O)=O)c1` (stereo not drawn) returned a z-score of 0.113.
As for `Cc1cccc(NC(=O)CN(C)S(=O)(=O)c2ccccc2)n1`, the z-score is 0.503.
As for `Cc1ccc2ccc(S(=O)(=O)n3nc(C)cc3C)cc2c1`, the figure is -0.75; as for `COC(=O)c1cccnc1NC(=S)NNC(=O)c1ccncc1`, 0.00261; as for `O=C(NCc1ccccn1)c1cn(Cc2ccccc2)nn1`, -0.856.
Then `COc1cccc(N(CC(=O)N2CCN(c3ccccc3OC)CC2)S(C)(=O)=O)c1`, with 0.0693.
`CCn1nc(C)c(NC(=O)/C=C/c2ccc(OC)c(COc3ccc(Br)cc3)c2)c1C` registered a z-score of -1.25.
Then `CCOC(=O)c1c(NS(=O)(=O)c2cccc(OC)c2)sc2c1CCC2`, with active: 16.9; and `COc1cc(C)ccc1OCCCCN1CC(C)OC(C)C1` (stereo not drawn), with -0.119; and `Cc1nn(-c2ccccc2)c(C)c1P(=O)(c1ccccc1)N(C)C` (stereo not drawn), with 1.71.
Then `COc1ccc(C(C)=O)cc1CSc1nc2ccccc2c(=O)n1-c1ccccc1C`, with 0.07; and `COC(=O)/C(=C/c1ccc(F)cc1)NC(C)=O`, with -0.177; and `CSc1cccc(NC(=O)CSc2nnc(C)s2)c1`, with -0.569.
As for `CC(=O)N1N=C(c2ccco2)CC1c1cccs1` (stereo not drawn), the figure is -0.152.
In the case of `Nc1ccc(C(=O)N/N=C\c2cc(N=Nc3cccc4ccccc34)ccc2O)cc1`, the z-score is 0.26.
As for `Cc1ccc(N2CCN(c3ccc(C)cc3)C(CC(=O)O)C2=O)cc1` (stereo not drawn), the figure is 0.799.
Compound `Cc1ccc(OCc2nc(-c3ccc(-n4cccc4)cc3)no2)cc1C` came in with a z-score of -0.0508.
Take `CCN1C(=O)/C(=C2\SC(=S)N(c3c(C)n(C)n(-c4ccccc4)c3=O)C2=O)c2ccccc21`: the z-score is 1.22.
Then `COc1cc(/C=C2/CCc3ccccc3C2=O)cc(OC)c1OC`, with -0.608.
In turn, `COc1ccc(OC)c(S(=O)(=O)Nc2cccc(C(C)=O)c2)c1` yielded a z-score of -0.0708.
Then `O=C(Cc1cccs1)NCc1cn2ccccc2n1`, with 0.0432.
In the case of `COc1ccc(N(CC(=O)N2CCc3ccccc32)S(=O)(=O)c2c(C)nn(C)c2C)cc1`, the z-score was found to be 1.95.
Take `O=c1[nH]c(CSc2nnc(-c3cccnc3)n2C2CCCCC2)nc2ccccc12`: the z-score came to 0.164.
As for `Cc1ccc2c(c1)nc(NCCCO)n2C`, the figure is -0.0773.
`Cc1cc(NC(=O)CCN2C(=O)C3C4CCC(C4)C3C2=O)cc(C)c1Br` (stereo not drawn) yielded a z-score of -0.242.
With `CCN1CCCc2cc(CN(CCN3CCOCC3)C(=O)Nc3ccc(C)c(C)c3)ccc21`, the z-score is -0.475.
Then `O=C(Nc1ccc(N2CCCC2)cc1)c1ccc([N+](=O)[O-])cc1Cl`, with -0.117.
As for `Cc1ccccc1-c1nnc(SCCOc2ccc3c(C)cc(=O)oc3c2)o1`, the figure is 0.05; as for `O=[N+]([O-])c1ccc2c(c1Nc1ccccc1)=NC1(CCCCC1)N=2`, -0.216; as for `CCOC(=O)C1=C(C)OC(N)=C(C(=O)OCC)C1c1cccnc1` (stereo not drawn), -0.567.
Then `CCOC(=O)c1ccc(CNC(=O)CSc2nc(NC(=O)c3ccccc3)c3c(C)c(C)oc3n2)cc1`, with -0.0764.
Compound `Cc1cc(C(=O)COc2ccc(C#N)cc2)c(C)n1-c1ccc2c(c1)OCO2` showed a z-score of -0.245.
As for `COc1ccc(Nc2oc(COc3ccc(Cl)cc3)nc2C#N)cc1`, the z-score stood at 0.0424.
Regarding `Cc1cccc(NC(=O)CCSc2nc(C)cc(C)n2)c1`, the z-score was 0.233.
As for `CCCOc1ccc(CC2CCC(=O)NC2=O)cc1` (stereo not drawn), the figure is -0.173; as for `Cc1ccc2cc(CCNC(=O)c3ccco3)c(=O)[nH]c2c1`, 0.076; as for `CCOCCCNC(=O)Cc1ccc(Br)cc1`, -0.0629.
Then `N=c1sccn1CC(=O)NCCc1ccc(Cl)cc1`, with -0.154.
As for `CCCCNC(=O)c1ccc(CNc2c(N3CCC(C(=O)OCC)CC3)c(=O)c2=O)cc1`, the figure is -0.576; as for `Cc1cc(OCC(=O)Nc2ccc(S(=O)(=O)NC3=NCCCCC3)cc2)c(C(C)C)cc1Cl`, -0.263.
`COc1ccc(Cl)c(NCCC(=O)O)c1` displayed a z-score of -0.0772.
`CC(=O)N(C)c1ccc(OCC(O)CN(Cc2ccco2)S(=O)(=O)c2ccc(C)cc2)cc1` (stereo not drawn) gave a z-score of -0.189.
